# Read counts are not given, so values of variants with three or more changes are uncertain.
# B1: LINE1-full (parent)
# chain: UACGUAGGUGGUUUUCCCCUGAUAGUGCUAAGGGGGCCUGGAAGUUUGGACUGGGCAGAGCUCAACACAGCGUGGCAAAGUGGCUGUGGCUAGACUGCCUCUCUGGAUUCCUCGUCACUCAGCAGGGCAUCUCUGAGAGAAAUGCC
# Variants of: B1
# Test: self-cleavage, relative activity (ratio to wild type); higher = more cleavage; in vitro, sequencing; the parent is a self-cleaving ribozyme
row,Variant,self-cleavage
1,U12G U47A U73C U100C,2.9
2,U12G U39C A79G,0
3,U12G C103U U112C,0.94
4,U12G A30U A67G U87C G88A A117C,0
5,U12C A69U U81C,0.29
6,U12C A79G C123A,1.14
7,U12C A65G A117U U143C,0.55
8,U12G G21U U39A A57G U81A U85A A92U A107G,0
9,U12C U15A A142G,1.45
10,U12C G93A U109C,0.11
11,U12C U26C U96G,0
12,U12C G105A U109C A121U,1.58
13,U13A A42G A142G,1.06
14,U12C A78G U134C,1.79
15,U12C G86A A136G A138U,0.11
16,U12C G34A G54A,0.24
17,U12G U47C C98U,0.9
18,U12C U108C G114A,2.3
19,U12C U20C G54A A78U A129G,1.41
20,U12C U39C U134C,1.1
21,U12G C51U A136U,1.39
22,U13A A22G U62C A67U A79G A141G,0
23,U12C U13C U14C C103U U112A A141G,0.84
24,U12G U20C A107G C111U,1.48

row,Variant,self-cleavage
1,U12C G86A A117G A141G,0
2,U12C U15A U73C A121U A141G,0
3,U12C A79G U112C A141G,0
4,U12C U87C U108A,0.53
5,U12C U39A U115A,1.41
6,U12G U13A U15C A50G,0.92
7,U13A A50G A64G A79G,0
8,U12G C128U A138G C145U,0.94
9,U12C U20C U52C A78G U85A,0.24
10,U12G U20G G86A,0.14
11,U12C U26G G35A U73A,1.31
12,U12C C51U A65G A141G,0
13,U12C U14C A65G,0.2
14,U12C U81A U104C A142G,2.12
15,U12G C38A A43U U132A,2.63
16,U12C A69G A124G,0.46
17,U12C C111U A138U,1.35
18,U12G G27A U96C,0.17
19,U12G U14C U23A U39A A65G A69G A142G,0
20,U12G A30G A65C U102A A140G,0.61
21,U12C U46C U87A C111U,0.17
22,U12C U62A U85C,0.1
23,U12G A64U A124G A142G,0.41
24,U12G A64C A129U U143C,0.52

row,Variant,self-cleavage
1,U12G U29C A43G A57U,0.3
2,U12G U39C U96C,0.21
3,U12G U13C U15C A94G,0.51
4,U12G A94G U132G,0.33
5,U12C A65G U104A U130C,0.46
6,U12C U26A A65G,0.07
7,U12C A138G A142G,1.12
8,U12G C19U A121U,0
9,U12C U26A A31U A138G,0.99
10,U12C C18U U115C U130C,0.92
11,U12C U13C A22U,0.51
12,U12C U96C A141G,0
13,U12C U109A A129G,1.58
14,U12G U13C U81C U109A,0.71
15,U12G U13C U47C G53A A140G,2.83
16,U12C U46A A77G A138U,1.48
17,U12C G32A A142G,1.53
18,U12C U20C U73A U87A,0.21
19,U12C U29C U87C U109C U143C,0.84
20,U12C C38A G58U,0.08
21,U12C A78G U119C,2.3
22,U12G U73A A78G U109C,1.77
23,U12C G21A A43G U100G,0.43
24,U12G U39A U46C A77G,1.37

row,Variant,self-cleavage
1,U12G A43G U130C,1.02
2,U12G A67U U81A,0.11
3,U12C U108C C131A,1.86
4,U12C U13A U100C,1.97
5,U12C A65G C99A A121G,0
6,U13A A43G A94G A117C U134C,0.46
7,U12C U13A A107G C113G,0.45
8,U12C G34A U119A,1.58
9,U12C G54U G137A,1.08
10,U12G U85A A129U A142C,0.2
11,U12C G36A U132C,1.75
12,U12C G74C A121G A141G,1.8
13,U12C U13C U73A,1.23
14,U12C U91C A107U,1.15
15,U12C U47C U143A,0.67
16,U12C G34U A140G,1.73
17,U12C U45C A77U U96A,0.16
18,U12C A77G U102G A142G,1.15
19,U12C U46C U115C,2.04
20,U12G A117G G122A,1.5
21,U12C C76U U112C,1.74
22,U12G G53A U102A G122A,1.62
23,U12C U47A G70A A94G A142G,0.01
24,U12C U14C U143A,0.68

row,Variant,self-cleavage
1,U12C U62C U73C A107U U108C,0.26
2,U12C U73A A94U U109C C123U A124G A140G,0.7
3,U12C U112C U115C,2.3
4,U12C G72A U87C U119A C145U,0.07
5,U12C U23C U119A U143A,1.19
6,U12G A65G C71A U119A U132C A141G,0
7,U12G U47A U91C C128A,0.55
8,U12C A79U U108A,2.36
9,U12G U47C U143A,1.02
10,U12G U26C A42G,0.8
11,U12C A121C A129U A138G,0.88
12,U12C U62A A141G,0.18
13,U13A A22U U108C U132C,1.22
14,U12C G32U C118A,1.2
15,U12C U73G U96A C118G C128U,0.04
16,U12C G74A U91C,0.91
17,U12C U47C A64G,0.29
18,U12G A30G U73A,1.84
19,U12C U104A A141G,1.16
20,U12C U47C U96C A129G,0.77
21,U12C U47C U85A U130C A142G,0
22,U12C U104C U143C,1.62
23,U12C G35C A50G A65U,0.21
24,U12C U23C G40U A67U A117G A124U,0.2

row,Variant,self-cleavage
1,U12C G34A U47A A140G,1.08
2,U12G U15A U81C G93A,0.46
3,U12C U96C A142G,0
4,U12C U13C U15C U46C U52A U96A,0
5,U12C U15C C66U U108C U134C,0.26
6,U12C A78G U130C,1.66
7,U12C U20G A42G A59U G88A,0.14
8,U13A A43G A77U U87C A141G,0
9,U12C A77U G89U U134G,0.04
10,U12C U85C A140G,0
11,U12C G86U A141G,0.32
12,U12C U46A A141G,0.46
13,U12C U14C U85A,0.22
14,U12C U15A A30U A50G A92G,0
15,U12C G58A A69U G106A,0.05
16,U12C A69G A121U,0.71
17,U12C A79G A107U,1.84
18,U12G C18A U29C,0.95
19,U12C U14C C99A A121G,1.02
20,U12C U14C U29C A141G,0.38
21,U12G U46C A57U U73A A77C U102C,0
22,U12G G72A A78G C110A A117G,0.96
23,U12C G53A A69G U104C,0.3
24,U12C C18U A129U,0.91

row,Variant,self-cleavage
1,U12G G34A G126A,0.77
2,U12C A69U U87A U115C,0.05
3,U12G U39C U109C C128U,1.28
4,U12C A78G U87C,0.07
5,U12G G75A A124U G135A A140G,1.7
6,U12C G35C A65G,0.29
7,U12C U87C C120U,0.5
8,U12G U52A A92G A140G,0.16
9,U12C G36A U47A U143A,1.48
10,U12G A65G A67G G72A A94G,0
11,U12C U96A G106U A129G,0.1
12,U12G U13C A43G U47A A79G,2
13,U12C G32U A141G,1.21
14,U12C U102A A124U,2.1
15,U12G A57U G75U U87A A107G,0.08
16,U12C G32A G83A U115C C123U,0.8
17,U12C U119C U134A,1.59
18,U12G U96C C131U U143A,0.25
19,U12G U100C U130A,2.12
20,U12C U20A A69G,0.36
21,U12C U62C A67G,0
22,U12C G82A A142G,1.75
23,U12C A67G A79U A136U,1.25
